Experimental findings from patent US20250129160A1 (Amgen, published 2025) are described below.

Ends that are not written are not given here.

In assay [1] the target is T1, human CCR8 (human, UniProt P51685 1-355). The assay can be described thus: cell-based or functional assay.
The target of assay [2] is T2, cynomolgus monkey CCR8 (Chinese origin) (cynomolgus monkey, UniProt O97665 1-356 (rhesus entry)).
T2 construct: on transfected CHO cells; also called cyno CCR8; Cy CCR8
The assay can be described thus: cyno Kd divided by human Kd.

In assay [3] the target is T1, human CCR8. The assay can be described thus: flow cytometry, CHO cells expressing human CCR8.
Assay [4] has as its target T3, CCR8 P_25-35 peptide construct (human, not fully specified (C-terminus); also: BAP biotinylated in vivo, fused construct pieces' sequences not given here).
T3 construct: coupled to streptavidin beads; not shown: G4S linker, V5 tag, G4S linker, chicken albumin, then FLAG tag, BAP and H3G each via SG linker
T3 chain: CDAELIQTNGK
Briefly: flow cytometry, peptide construct on streptavidin beads, 5 µg/mL. On the technique in general: A flow cytometer gives signals particle by particle.

Assay [5] has as its target T4, CCR8 P_13-24 peptide construct (human, not fully specified (C-terminus); also: BAP biotinylated in vivo, fused construct pieces' sequences not given here).
T4 construct: coupled to streptavidin beads; not shown: G4S linker, V5 tag, G4S linker, chicken albumin, then FLAG tag, BAP and H3G each via SG linker
T4 chain: TDYYYPDIFSSP
The description is as above.

The target in assay [6] is T5, CCR8 P_7-18 peptide construct (human, not fully specified (C-terminus); also: BAP biotinylated in vivo, fused construct pieces' sequences not given here).
T5 construct: coupled to streptavidin beads; not shown: G4S linker, V5 tag, G4S linker, chicken albumin, then FLAG tag, BAP and H3G each via SG linker
T5 chain: LSVTTVTDYYYP
The description is as above.

The target in assay [7] is T6, CCR8 P_1-12 peptide construct (human, not fully specified (C-terminus); also: BAP biotinylated in vivo, fused construct pieces' sequences not given here).
T6 construct: coupled to streptavidin beads; not shown: G4S linker, V5 tag, G4S linker, chicken albumin, then FLAG tag, BAP and H3G each via SG linker
T6 chain: MDYTLDLSVTTV
The description is as above.

Assay [8] deals with T7, CCR8 P_1-35 peptide construct (full-length N-terminal peptide of human CCR8) (human, BAP biotinylated in vivo).
T7 construct: from HEK 293 supernatant, coupled to streptavidin beads; not shown: G4S linker, V5 tag, G4S linker, chicken albumin, then FLAG tag, BAP and H3G each via SG linker
Described as above.

Assay [9] addresses T8, CCR8 P_19-30 peptide construct (human, not fully specified (C-terminus); also: BAP biotinylated in vivo, fused construct pieces' sequences not given here).
T8 construct: coupled to streptavidin beads; not shown: G4S linker, V5 tag, G4S linker, chicken albumin, then FLAG tag, BAP and H3G each via SG linker
T8 chain: DIFSSPCDAELI
The assay is described as above.

Assay [10] addresses T2, cynomolgus monkey CCR8 (Chinese origin). The assay can be described thus: flow cytometry, CHO cells expressing cynomolgus CCR8.
Assay [11] addresses T9, cynomolgus monkey CCR8 (T4R), Mauritian origin (cynomolgus monkey, UniProt O97665 1-356 (rhesus entry)).
T9 construct: also called cy CCR8 (T4R); Cy CCR8 (T4R)
T9 chain: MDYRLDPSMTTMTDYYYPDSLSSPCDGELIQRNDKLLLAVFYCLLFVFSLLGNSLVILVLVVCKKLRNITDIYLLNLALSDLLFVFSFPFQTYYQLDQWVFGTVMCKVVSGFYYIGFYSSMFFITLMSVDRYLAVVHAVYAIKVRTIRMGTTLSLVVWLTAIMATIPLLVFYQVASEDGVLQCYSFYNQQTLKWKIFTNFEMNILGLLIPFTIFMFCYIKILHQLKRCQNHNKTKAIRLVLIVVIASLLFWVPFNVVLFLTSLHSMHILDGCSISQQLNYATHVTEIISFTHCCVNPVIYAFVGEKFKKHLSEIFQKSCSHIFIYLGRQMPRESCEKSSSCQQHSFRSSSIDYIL
The assay can be described thus: flow cytometry, CHO cells expressing cynomolgus CCR8 (T4R).

Assay [12] has as its target T9, cynomolgus monkey CCR8 (T4R), Mauritian …. The assay can be described thus: cyno (T4R) Kd divided by human Kd.

B1: CCR8 TCE3 scFab × I2E × scFc (bispecific antibody)
chain: QVQLVESGGGVVQPGRSLRLSCEASGFTFSSYVMHWVRQAPGKGLEWVSVISYDGSSQYYTDSVKGRFTISRDNSKNTLNLQMNSLRAEDTAVYYCVRGRLATAILFDYWGQGTLVTVSSASTKGPSVFPLAPSSKSTSGGTAALGCLVKDYFPEPVTVSWNSGALTSGVHTFPAVLQSSGLYSLSSVVTVPSSSLGTQTYICNVNHKPSNTKVDKKVEPKSCGGGGQGGGGQGGGGQGGGGQGGGGQGGGGQGGGGQGGGGQEILMTQTPLSLSVTPGQPASISCKSSQSLLYSDGKTYLFWYLQRPGQPPQLLIYEVSNRFSGVPDRFSGSGSGTDFTLKISRVEAEDVGIYYCMQSIKLPLTFGGGTKVEIKRTVAAPSVFIFPPSDEQLKSGTASVVCLLNNFYPREAKVQWKVDNALQSGNSQESVTEQDSKDSTYSLSSTLTLSKADYEKHKVYACEVTHQGLSSPVTKSFNRGECSGGGGQEVQLVESGGGLVQPGGSLKLSCAASGFTFNKYAINWVRQAPGKGLEWVARIRSKYNNYATYYADAVKDRFTISRDDSKNTVYLQMNNLKTEDTAVYYCARAGNFGSSYISYWAYWGQGTLVTVSSGGGGQGGGGQGGGGQQTVVTQEPSLTVSPGGTVTIT[about 80 residues not given here]FGSGTKLTVLGGGGCPPCPAPELLGGPSVFLFPPKPKDTLMISRTPEVTCVVVDVSHEEPEVKFNWYVDGVEVHNAKTKPCEEQYGSTYRCVSVLTVLHQDWLNGKEYKCKVSNKALPAPIEKTISKAKGQPREPQVYTLPPSREEMTKNQVSLTCLVKGFYPSDIAVEWESNGQPENNYKTTPPVLDSDGSFFLYSKLTVDKSRWQQGNVFSCSVMHEALHNHYTQKSLSLSPGKGGGGQGGGGQGGGGQGGGGQGGGGQGGGGQCPPCPAPELLGGPSVFLFPPKPKDTLMISRTPEVTCVVVDVSHEEPEVKFNWYVDGVEVHNAKTKPCEEQYGSTYRCVSVLTVLHQDWLNGKEYKCKVSNKALPAPIEKTISKAKGQPREPQVYTLPPSREEMTKNQVSLTCLVKGFYPSDIAVEWESNGQPENNYKTTPPVLDSDGSFFLYSKLTVDKSRWQQGNVFSCSVMHEALHNHYTQKSLSLSPGK
notes: single chain; also called TCE3 scFab (CCR8) x scFv (CD3) x scFc
For orientation: Kd means the free concentration of one partner at which half of the binding sites on the other are occupied at equilibrium, for simple one-to-one binding. Consider B1, for which, in the assay with human CCR8 [1], the “EC50, 48-hour FACS based cytotoxicity assay, HUT-78 (CD3+)” value worked out at 0.478 nM. The “Affinity gap Kdcy/Kdhu CCR8” value in assay [2] turned out to be 21.1 ratio. Further, the Kd in the assay with human CCR8 [3] is 12.8 nM; in assay [10], 271 nM. Also, the “Median Fluorescence of Sample/Median Fluorescence of Negative Control” value in [4] came to 1.1 ratio; in [5], 1090 ratio; in assay [6], 1 ratio; in assay [7] it was 1 ratio; in assay [8], 1280 ratio; in [9], 1.1 ratio.

B2: CCR8 TCE4 scFab × I2E × scFc (bispecific antibody)
chain: QVQLVESGGGVVQPGRSLRLSCAASGFTFSSYGMHWVRQAPGKGLEWVAVISYDGSNKYYADSVKGRFTISRDNSKNTLYLQMNSLRAEDTAVYYCARGRYFDWFLFDYWGQGTLVTVSSASTKGPSVFPLAPSSKSTSGGTAALGCLVKDYFPEPVTVSWNSGALTSGVHTFPAVLQSSGLYSLSSVVTVPSSSLGTQTYICNVNHKPSNTKVDKKVEPKSCGGGGQGGGGQGGGGQGGGGQGGGGQGGGGQGGGGQGGGGQDTVMTQTPLSLSVTPGQPASISCKSSQSLLHSDGKTYLFWYLQKPGQPPQLLISEVSNRFSGVPDRFSGSGSGTDFTLKISRVEAEDVGFYYCMQSLRLPLTFGGGTKVEIKRTVAAPSVFIFPPSDEQLKSGTASVVCLLNNFYPREAKVQWKVDNALQSGNSQESVTEQDSKDSTYSLSSTLTLSKADYEKHKVYACEVTHQGLSSPVTKSFNRGECSGGGGQEVQLVESGGGLVQPGGSLKLSCAASGFTFNKYAINWVRQAPGKGLEWVARIRSKYNNYATYYADAVKDRFTISRDDSKNTVYLQMNNLKTEDTAVYYCARAGNFGSSYISYWAYWGQGTLVTVSSGGGGQGGGGQGGGGQQTVVTQEPSLTVSPGGTVTIT[about 80 residues not given here]FGSGTKLTVLGGGGCPPCPAPELLGGPSVFLFPPKPKDTLMISRTPEVTCVVVDVSHEEPEVKFNWYVDGVEVHNAKTKPCEEQYGSTYRCVSVLTVLHQDWLNGKEYKCKVSNKALPAPIEKTISKAKGQPREPQVYTLPPSREEMTKNQVSLTCLVKGFYPSDIAVEWESNGQPENNYKTTPPVLDSDGSFFLYSKLTVDKSRWQQGNVFSCSVMHEALHNHYTQKSLSLSPGKGGGGQGGGGQGGGGQGGGGQGGGGQGGGGQCPPCPAPELLGGPSVFLFPPKPKDTLMISRTPEVTCVVVDVSHEEPEVKFNWYVDGVEVHNAKTKPCEEQYGSTYRCVSVLTVLHQDWLNGKEYKCKVSNKALPAPIEKTISKAKGQPREPQVYTLPPSREEMTKNQVSLTCLVKGFYPSDIAVEWESNGQPENNYKTTPPVLDSDGSFFLYSKLTVDKSRWQQGNVFSCSVMHEALHNHYTQKSLSLSPGK
notes: single chain; also called TCE4 CCR8 scFab (CCR8) x scFv (CD3) x scFc
As to B2, the “EC50, 48-hour FACS based cytotoxicity assay, HUT-78 (CD3+)” value with human CCR8 [1] was 1.25 nM. Besides, the “Affinity gap Kdcy/Kdhu CCR8” value in assay [2] amounted to 40 ratio. The dissociation constant (Kd) is 11.4 nM with human CCR8 [3], 1260 nM in [11] and 456 nM in assay [10]. The “Median Fluorescence of Sample/Median Fluorescence of Negative Control” value was 1.1 ratio in assay [4]; 996 ratio in assay [5]; 1 ratio in assay [6]; 1 ratio in [7]; 1170 ratio in assay [8]; 1.1 ratio in assay [9]. Besides, in assay [12], the “Affinity gap Kdcy (T4R)/Kdhu CCR8” value worked out at 111 ratio.
